Data reported in PubChem BioAssay AID504332 (National Center for Advancing Translational Sciences (NCATS), 2011).
Where “and” joins values, the source holds several entries; their conditions need not be identical. Identical values can stand only once. The whole screen tested about 350,000 compounds, of which about 31,000 (8.9%) were called active. The shares of active, inactive and inconclusive entries below differ from those in the screen. The call rests on the fitted dose curve; in most records, active means well fitted inhibition curve with a large enough effect; inconclusive means small, poorly fitted or top-dose-only effect; inactive means no such curve, though single readings can be large or run the other way. Potencies beside an inconclusive call are fits to weak or partial responses and may not hold up. Some structures have more than one record in an assay (separate samples or runs), and their calls can disagree.

Molecular target: Histone-lysine N-methyltransferase EHMT2 (Homo sapiens) (UniProt Q96KQ7)
UniProt Q96KQ7, sequence (Q96KQ7 whole entry, looked up): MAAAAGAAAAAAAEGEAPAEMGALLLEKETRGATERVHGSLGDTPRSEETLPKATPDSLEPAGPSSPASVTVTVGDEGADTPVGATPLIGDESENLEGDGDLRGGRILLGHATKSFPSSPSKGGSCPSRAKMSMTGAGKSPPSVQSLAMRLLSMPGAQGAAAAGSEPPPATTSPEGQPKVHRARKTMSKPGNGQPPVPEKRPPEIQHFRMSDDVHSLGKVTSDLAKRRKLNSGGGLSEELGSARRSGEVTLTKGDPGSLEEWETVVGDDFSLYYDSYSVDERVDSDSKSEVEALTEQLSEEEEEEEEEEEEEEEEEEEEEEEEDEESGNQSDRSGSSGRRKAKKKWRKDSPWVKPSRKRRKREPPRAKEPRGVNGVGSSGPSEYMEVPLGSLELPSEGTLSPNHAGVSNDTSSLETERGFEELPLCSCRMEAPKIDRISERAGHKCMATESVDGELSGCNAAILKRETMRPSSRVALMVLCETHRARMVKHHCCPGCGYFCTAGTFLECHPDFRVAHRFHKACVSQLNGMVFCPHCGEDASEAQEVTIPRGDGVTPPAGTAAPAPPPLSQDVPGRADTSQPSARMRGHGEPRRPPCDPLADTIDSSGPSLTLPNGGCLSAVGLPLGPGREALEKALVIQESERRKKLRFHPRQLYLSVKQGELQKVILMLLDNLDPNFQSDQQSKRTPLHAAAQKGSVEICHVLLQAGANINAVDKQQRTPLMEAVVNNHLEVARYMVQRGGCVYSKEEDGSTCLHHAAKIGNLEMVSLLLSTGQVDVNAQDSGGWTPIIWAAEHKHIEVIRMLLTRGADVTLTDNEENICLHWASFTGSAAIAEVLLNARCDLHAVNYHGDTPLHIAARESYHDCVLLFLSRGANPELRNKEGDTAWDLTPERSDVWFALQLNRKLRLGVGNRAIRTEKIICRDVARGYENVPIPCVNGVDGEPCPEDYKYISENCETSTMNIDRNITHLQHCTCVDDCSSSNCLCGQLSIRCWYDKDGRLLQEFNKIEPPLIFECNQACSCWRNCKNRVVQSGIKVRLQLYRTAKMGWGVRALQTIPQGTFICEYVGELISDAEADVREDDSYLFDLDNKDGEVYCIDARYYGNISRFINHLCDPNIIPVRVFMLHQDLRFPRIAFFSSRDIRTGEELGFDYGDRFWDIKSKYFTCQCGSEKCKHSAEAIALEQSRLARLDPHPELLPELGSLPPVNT
Experiment: qHTS Assay for Inhibitors of Histone Lysine Methyltransferase G9a; further: nearly all actives have a fitted effect of over 75% in size
Conditions: G9a H3K9 monomethylation, AlphaScreen, 2 h; activity, negative = inhibition: at 59 µM (top of the series) unless noted
Summary of the method: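 Methyltransferase reactions run at room temperature for 2 h (20 nM enzyme, 500 nM biotin-H3K9 peptide, 20 uM SAM) after a 15 min compound preincubation; product detected by AlphaScreen beads and anti-H3K9me1 antibody.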
On the % scale 0 is the no-effect control and ±100 the full control effect; potency means the concentration at half of the fitted maximal effect; tags describe the fitted curve by direction and shape.

Row | Structure (SMILES) | Potency | activity, negative = inhibition
1 | O=C(Nc1cc(C(F)(F)F)ccc1N1CCOCC1)C1Cc2ccccc2CN1C(=O)c1ccco1 (configuration not stated) | inconclusive: 35.5 µM [inhibitor, single point] | 
2 | Cc1nc(Nc2ncc(C(=O)Nc3c(C)cccc3Cl)s2)cc(N2CCN(CCO)CC2)n1 |  | inactive: -6.15% [at 12.7 µM]
3 | CCC(CC)c1nnc(NC(=O)CCc2ccccc2)s1 | inactive | 
4 | N#Cc1ccc(OCC(=O)OCCCOC(=O)COc2ccc(C#N)cc2)cc1 | inconclusive: 50.1 µM [inhibitor, partial curve, poor fit] | 
5 | CCCNC(=O)c1ccc2c(=O)c(O)c(-c3ccsc3)[nH]c2c1 |  | inconclusive: -67% [inhibitor] [at 12.7 µM]
6 | CCCOc1ccc(C(=O)NNC(=S)NC(=O)c2cc(-c3ccccc3)nc3ccccc23)cc1 | inconclusive: 79.4 µM [inhibitor, partial curve, poor fit] | 
7 | O=C(CSc1nnc(NC(=O)C2CC2)s1)NCc1ccccc1 | inactive | 
8 | Cc1nc2c(sc3nc4c(cc32)COC(C)(C)C4)c(=O)o1 | inconclusive: 10 µM [inhibitor, partial curve, poor fit] | 
9 | CC(=O)c1ccc(S(=O)(=O)N2CCCC2)cc1 | inactive | 
10 | COc1cc2c(cc1OC)C(c1ccccc1)N(C(=O)c1ccco1)CC2 (configuration not stated) | inconclusive: 79.4 µM [inhibitor, partial curve, poor fit] | 
11 | O=C(CCc1ccccc1)Nc1cccnc1 | inactive | 
12 | Cc1nonc1CN(C)C(=O)c1ccc(OC2CCN(Cc3ccccn3)CC2)cc1 | inconclusive: 25.1 µM [inhibitor, single point] | 
13 | COc1ccccc1N1CCN(C(=O)Cn2c(=O)nc(-c3ccccc3)c3ccccc32)CC1 |  | inactive: -1.95% [at 12.7 µM]
14 | C/C(=N\NC(=O)c1ccncc1)c1cccnc1 | inconclusive: 89.1 µM [inhibitor, single point] | 
15 | CCOc1ccc(NC(=O)NNC(=O)c2ccc(Cl)cc2Cl)cc1 | inactive | 
16 | CCN(CC)S(=O)(=O)c1ccc(Cl)c(NC(=O)c2ccccc2C)c1 |  | inactive: 15.3% [at 12.7 µM]
17 | CC1CN(C(=O)N2CCC(C(=O)NCc3ccccc3F)CC2)c2cc(Cl)ccc2O1 (configuration not stated) | inconclusive: 10 µM [inhibitor, partial curve, poor fit] | 
18 | COc1c2c(cc3c1C(CC(O)Cc1ccccc1)N(C)CC3)OCO2 (configuration not stated) | inconclusive: 56.2 µM [inhibitor, partial curve, poor fit] | 
19 | COc1ccc(OCC(=O)N/N=C\c2ccco2)cc1 | inactive | 
20 | COCCn1c(=O)c(-c2ccc(F)cc2)nc2cnc(OC)nc21 |  | inactive: 4.56% [at 0.501 µM]
21 | COc1ccc(NC(=O)c2ccc(Cc3ccc(C)cc3)o2)cc1 | inconclusive: 35.5 µM [inhibitor, single point] | 
22 | O=C(NCc1ccccc1Cl)c1ccc2c(c1)NC(=O)C(CS(=O)(=O)Cc1ccc(Cl)cc1)N2 (configuration not stated) | active: 28.2 µM | 
23 | Cc1ccc(/C=N/NC(=O)Cc2cccs2)o1 | inconclusive: 10 µM [inhibitor, partial curve, poor fit] | 
24 | Cc1ccc2nc(-c3ccc(C)s3)c(Nc3ccc4c(c3)OCCO4)n2c1 | inactive | 

Row | Structure (SMILES) | Potency | activity, negative = inhibition
25 | COc1ccc(C2Nc3ccccc3C(=O)N2Cc2ccco2)cc1COc1ccc(NC(C)=O)cc1 (configuration not stated) | inconclusive: 28.2 µM [inhibitor, single point] | 
26 | COc1ccccc1-c1nn(CCC(=O)Nc2ccccc2)c2nc(C)cc(C)c12 | inactive | 
27 | O=c1cc(CN2CCN(C/C=C/c3ccccc3)CC2)c2cc(O)c(-c3ccccc3)cc2o1 | inactive | 
28 | Cc1cnc(NC(=O)CSc2ncc(-c3ccccc3)n2Cc2ccco2)s1 |  | inconclusive: -111% [inhibitor]
29 | COc1ccc(NC(=O)CSc2nnc(C)n2C2CCCCC2)cc1 | inconclusive: 89.1 µM [inhibitor, single point] | 
30 | CCOC(=O)c1c(C)[nH]c(C)c1S(=O)(=O)N1CCCC(C(=O)N2CCN(c3cccc(Cl)c3)CC2)C1 (configuration not stated) | inconclusive: 10 µM [inhibitor, partial curve, poor fit] | 
31 | CCOC(=O)C1(CCOC)CCN(C(=O)c2sccc2C)CC1 | inactive | 
32 | CCCCN(C(=O)Cc1cccs1)c1nnc(-c2cccnc2)s1 | inconclusive: 39.8 µM [inhibitor, single point] | 
33 | COC(=O)CC1C2(C)CC34OC5(C)O[C@@]6(C7/C(=C(/OC)C(C)C)C(=O)OC(c8ccoc8)[C@@]7(C)C(OC(=O)C(C)C)C(OC)[C@]6(O5)[C@@]13C)C(OC)[C@]4(OC)C2OC(C)=O (some centres not stated) |  | inactive: -30.3% [at 2.33 µM]
34 | COc1cc(Cl)cc(/C=N/NC(N)=O)c1O |  | inconclusive: -71.4% [inhibitor]
35 | CCc1ccc(-c2nc(CS(=O)CC(=O)NCc3ccco3)c(C)o2)cc1 (configuration not stated) | inconclusive: 79.4 µM [inhibitor, single point] | 
36 | O=C(NNC(=S)Nc1cccc(Cl)c1)c1ccccc1OC(F)F | inconclusive: 17.8 µM [inhibitor, partial curve, poor fit] | 
37 | CCCCN(C)C(=O)CSc1nc(NCc2ccc(OC)cc2)c2ccccc2n1 | inconclusive: 79.4 µM [inhibitor, single point] | 
38 | CCOC(=O)C1=C(SCC)c2cc3c(n2C1=O)CCCC3 | active: 7.94 µM | 
39 | CCN(CC)CCNC(=O)c1cc2c(-c3cccc(OC)c3)nn(C)c2s1 | active: 79.4 µM | 
40 | Cc1cccc(C)c1NC(=O)CCCSc1nnc(-c2ccc(Cl)cc2)n1-c1ccccc1 | inconclusive: 100 µM [inhibitor, single point] | 
41 | CN(C)/C=C/C(=O)c1cccc(Cl)c1 |  | inconclusive: -62% [inhibitor] [at 12.7 µM]
42 | COc1cc(/C=N/NC(=O)Cc2csc(N3CCOCC3)n2)cc(OC)c1O | inconclusive: 63.1 µM [inhibitor, partial curve, poor fit] | 
43 | CC(C)(C)C(=O)NC(=S)NNC(=O)c1ccc(Cl)cc1Cl | inconclusive: 50.1 µM [inhibitor, partial curve, poor fit] | 
44 | NC(=O)c1ccsc1NC(=O)CS(=O)(=O)c1ccc(Cl)cc1 | inactive | 
45 | CCCCn1c(SCC(N)=O)nc2c(sc3ccccc32)c1=O | inconclusive: 89.1 µM [inhibitor, partial curve, poor fit] | 
46 | O=C(CC(c1ccccc1)c1ccco1)Nc1nccs1 (configuration not stated) | active: 50.1 µM | 
47 | Cn1cccc1/C=N/n1c(-c2ccc(Cl)cc2)n[nH]c1=S |  | inconclusive: -124% [inhibitor] [at 12.7 µM]
48 | COc1ccc(-c2n[nH]c(C)c2-c2cnn(-c3ccccc3)c2)c(O)c1C | inconclusive: 79.4 µM [inhibitor, partial curve, poor fit] | 

Row | Structure (SMILES) | Potency | activity, negative = inhibition
49 | Cc1cccc(NC(=O)c2ccccc2C(=O)O)c1 | inconclusive: 79.4 µM [inhibitor, single point] | 
50 | CCc1n(CC(O)COCc2ccccc2)c2ccccc2[n+]1C (configuration not stated) | active: 44.7 µM | 
51 | CN1C(=O)c2ccccc2Sc2ccc(NC(=O)N3CCN(c4ccc(F)cc4)CC3)cc21 | inactive | 
52 | COc1ccccc1N=Cc1nc(-c2ccccc2)oc1OC(C)=O | inconclusive: 39.8 µM [inhibitor, single point] | 
53 | Cc1cc(OC(=O)c2cc(Br)ccc2Cl)c([N+](=O)[O-])c(=O)[nH]1 | inconclusive: 89.1 µM [inhibitor, single point] | 
54 | CCOC(=O)COc1ccc2c3c(c(=O)oc2c1C)CCC3 |  | inactive: -2.35% [at 12.7 µM]
55 | COc1ccc(S(=O)(=O)Nc2cccc(-c3ccc(N4CCCCC4)nn3)c2)cc1F | inactive | 
56 | Cn1c(=O)[nH]c(=O)c2[nH]c(CN3CCN(C(=O)c4ccco4)CC3)nc21 |  | inconclusive: -119% [inhibitor]
57 | CCOC(=O)c1c(CSc2ccccc2)n(C)c2cc(Br)c(O)c(CN(C)C)c12 | active: 39.8 µM | 
58 | O=C1CCCc2oc3c(c21)CCCC3 | active: 50.1 µM | 
59 | COc1ccc(C(=O)NCCc2csc(-c3ccc(Cl)cc3)n2)c(OC)c1 | inactive | 
60 | CN1CCN(c2nc(-c3cccs3)cs2)CC1 | active: 35.5 µM | 
61 | COc1ccc(C2OC(=O)CC2C(=O)N2CCN(c3cc(Cl)ccc3C)CC2)cc1OC (configuration not stated) | inconclusive: 79.4 µM [inhibitor, single point] | 
62 | COc1ccc2c3c(cccc13)C(=O)CC2 |  | inactive: 18.6% [at 0.501 µM]
63 | Oc1ccc(NCc2ccccc2OCc2ccccc2)cc1 | active: 11.2 µM and active: 1.78 µM | 
64 | Cc1ccc(Nc2cc(C)nc(NCc3ccccc3)n2)cc1 | inactive | 
65 | Cc1ccc(S(=O)(=O)Nc2ccc3cn[nH]c3c2)cc1 | inactive | 
66 | CCN1CCc2nc3sc(C(=O)Nc4ccccc4OC(F)(F)F)c(N)c3cc2C1 | active: 14.1 µM | 
67 | CCOC(=O)C1CCCN(C(=S)Nc2ccc(Nc3ccccc3)cc2)C1 (configuration not stated) | active: 25.1 µM | 
68 | CCN(CC)S(=O)(=O)c1ccc(NC(=O)COC(=O)CNC(=O)C2CCCCC2)cc1 | inconclusive: 89.1 µM [inhibitor, single point] | 
69 | CC(=O)Oc1ccc2nc(-c3ccco3)oc(=O)c2c1 | inactive | 
70 | Cc1ccc(NCc2ccccc2OCc2ccccc2F)cc1 | inconclusive: 39.8 µM [inhibitor, single point] | 
71 | COc1ccc(C(=O)c2sc3nc(-c4ccccc4)ccc3c2N)cc1OC | inconclusive: 35.5 µM [inhibitor, single point] | 
72 | O=C(Cn1nc(CNc2ccc(Cl)cc2)[n+]2c1CCCCC2)c1ccccc1 | inactive | 
